# Results taken from PubChem BioAssay AID720709 (National Center for Advancing Translational Sciences (NCATS), 2013).
# Hit rate of the full screen: of about 360,000 compounds, about 520 (0.14%) were called active. The shares of active, inactive and inconclusive entries below differ from those in the screen. Calls come from the whole dose curve; as a rule, active = well fitted inhibition curve with a large enough effect; inconclusive = small, poorly fitted or top-dose-only effect; inactive = no such curve, though single readings can be large or run the other way. No potency is given beside an inconclusive call; the fits are too rough.
# Biological target: Rap guanine nucleotide exchange factor 3 (Homo sapiens) (UniProt O95398)
# Test: qHTS for Antagonist of cAMP-regulated guanine nucleotide exchange factor 3 (EPAC1): primary screen; note: nearly all actives have a fitted effect of over 50% in size;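 for activity change, negative = inhibition: plate controls were vehicle for no effect and positive control for full effect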
# Conditions: EPAC1 GEF assay, Rap1b-BODIPY-GDP exchange fluorescence; activity change, negative = inhibition: at 115 µM (top of the series)
# Potency is the fitted concentration of half-maximal effect; tags give direction and shape of the fitted curve.
# UniProt O95398, sequence (O95398 whole entry, looked up): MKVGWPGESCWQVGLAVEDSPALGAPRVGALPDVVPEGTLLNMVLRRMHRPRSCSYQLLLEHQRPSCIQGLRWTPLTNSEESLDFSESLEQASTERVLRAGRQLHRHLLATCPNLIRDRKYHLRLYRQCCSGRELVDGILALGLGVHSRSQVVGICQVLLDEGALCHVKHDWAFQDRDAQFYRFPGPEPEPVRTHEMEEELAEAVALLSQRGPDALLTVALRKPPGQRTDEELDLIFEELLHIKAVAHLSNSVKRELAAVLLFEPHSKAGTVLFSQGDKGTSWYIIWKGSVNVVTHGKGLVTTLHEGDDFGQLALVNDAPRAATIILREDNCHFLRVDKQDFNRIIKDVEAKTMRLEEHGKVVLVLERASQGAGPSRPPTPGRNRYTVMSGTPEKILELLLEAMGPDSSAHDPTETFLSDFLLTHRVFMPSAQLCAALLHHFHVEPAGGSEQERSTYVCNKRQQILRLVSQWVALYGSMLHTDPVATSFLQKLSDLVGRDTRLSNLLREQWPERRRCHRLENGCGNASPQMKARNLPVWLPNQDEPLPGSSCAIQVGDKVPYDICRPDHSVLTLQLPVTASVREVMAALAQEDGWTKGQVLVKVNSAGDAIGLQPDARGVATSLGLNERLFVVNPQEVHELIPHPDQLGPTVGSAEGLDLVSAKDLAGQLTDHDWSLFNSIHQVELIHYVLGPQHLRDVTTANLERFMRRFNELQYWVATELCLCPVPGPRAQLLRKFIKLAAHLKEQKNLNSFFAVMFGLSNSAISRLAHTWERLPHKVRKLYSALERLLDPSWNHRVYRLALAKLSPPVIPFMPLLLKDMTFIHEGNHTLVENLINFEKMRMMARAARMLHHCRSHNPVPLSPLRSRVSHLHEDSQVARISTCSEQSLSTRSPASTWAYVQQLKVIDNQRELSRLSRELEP
SMILES,Potency,"activity change, negative = inhibition"
CCOc1ccc(NC(=S)NCCCc2ccccc2)cc1,inactive,
Cc1cccc(CN2C(=O)NC(c3ccccc3)(c3ccccc3)C2=O)c1,"inconclusive [inhibitor, full curve, poor fit]",
CCN(C[C@H]1N[C@@](Cc2ccccc2)(C(=O)OC)[C@H]2C(=O)N(Cc3ccccc3)C(=O)[C@@H]12)S(=O)(=O)c1ccc(OC(F)(F)F)cc1,"inconclusive [inhibitor, partial curve]",
Cc1cccc(C)c1N(CC(=O)Nc1cc(Cl)ccc1Oc1ccccc1)S(C)(=O)=O,inactive,
CN(C)N1C(N)=C(C#N)C(c2cccs2)C2=C1CCCC2=O (stereo not given),"inconclusive [inhibitor, full curve, poor fit]",
Cc1noc(C)c1C(=O)N1CCC(C(=O)c2ccccc2)CC1,,inconclusive: -34.8% [inhibitor]
Cc1[nH]c(-c2ccc(F)cc2)cc1C(=O)N1CCN(c2ccccc2F)CC1,"inconclusive [inhibitor, partial curve]",
Cc1ccc(NC(=O)CN2C(=O)S/C(=C\c3cc(C)n(C)c3C)C2=O)cc1,inactive,
Cc1cccc(N(CC(=O)NCc2ccco2)C(=O)CCC(=O)Nc2nccs2)c1C,"inconclusive [inhibitor, single point]",
O=C(O)CCn1cc(/C=C/C(=O)c2ccc(Cl)cc2)c(-c2cccc(Br)c2)n1,"inconclusive [inhibitor, partial curve]",
CCN(Cc1ccc(C#CCCO)cc1)CC1CCCN(CCc2cccc(F)c2)C1 (stereo not given),"inconclusive [inhibitor, partial curve]",
Cc1ccc(Cc2cnc(N3C(=N)SC(c4ccccc4)C3=O)s2)cc1 (stereo not given),"inconclusive [inhibitor, partial curve, poor fit]",
COc1ccc(C=C2SC(=S)NC2=O)c(OC)c1OC,"inconclusive [inhibitor, full curve, poor fit]",
CC1Cc2nc(SCC(=O)N3CCCc4ccccc43)n(C)c(=O)c2S1 (stereo not given),"inconclusive [inhibitor, single point]",
Cc1ccc(C)c(NC(=O)N2CCc3ccccc3C2)c1,inactive,
N=c1c(S(=O)(=O)c2ccc(Cl)cc2)cc2c(=O)n3ccccc3nc2n1CC1CCCO1 (stereo not given),"inconclusive [inhibitor, single point]",
CCC(C)(C)NC(=O)CN(C(=O)CNS(=O)(=O)c1ccccc1)c1ccccc1,"inconclusive [inhibitor, single point]",
O=C(c1ccccc1Br)N(Cc1ccccc1)c1ccccc1,"inconclusive [inhibitor, partial curve, poor fit]",
CCOC(=O)C1CCN(C2=C(NS(=O)(=O)c3ccc(Cl)cc3)C(=O)c3ccccc3C2=O)CC1,"inconclusive [inhibitor, single point]",
O=S1(=O)N=C(SCCO)c2ccccc21,inactive,

SMILES,Potency,"activity change, negative = inhibition"
COc1ccc(OC)c(S(=O)(=O)N2CCC3(CC2)OCCN3S(=O)(=O)c2cccs2)c1,"inconclusive [inhibitor, single point]",
Cc1cc(C)c(S(=O)(=O)N2CCOC2CNC(=O)C(=O)NCCN2CCOCC2)c(C)c1 (stereo not given),"inconclusive [inhibitor, full curve, poor fit]",
O=C(c1cccc(F)c1)N1CCC2(CC1)NCCc1[nH]cnc12,"inconclusive [inhibitor, single point]",
Cc1ccccc1Nc1nnc(SCC(=O)Nc2ncc(C(F)(F)F)cc2Cl)s1,"inconclusive [inhibitor, full curve]",
CC(C)[C@H](NC(=O)OCc1ccccc1)C(=O)OCC(=O)N1CCN(c2ccc(F)cc2)CC1,"inconclusive [inhibitor, single point]",
CCCC1=C/C(=C/c2ccc(-c3ccccc3OC)o2)C(=O)O1,"inconclusive [inhibitor, partial curve]",
O=S(=O)(c1ccc(C(F)(F)F)cc1)N1CCCN(c2ccc(C(F)(F)F)cn2)CC1,"inconclusive [inhibitor, full curve, poor fit]",
CC1=NN(c2ccc(N)cc2)C(=O)C1,"inconclusive [inhibitor, partial curve]",
O=C(CCC1CCCN(C(=O)C2(c3ccccc3)CC2)C1)N1CCN(c2ccccn2)CC1 (stereo not given),"inconclusive [inhibitor, single point]",
O=C(c1cc(C(=O)N2CCN(c3ccc(F)cc3)CC2)cc([N+](=O)[O-])c1)N1CCN(c2ccc(F)cc2)CC1,"inconclusive [inhibitor, single point]",
CC1CCCCN1C(=O)c1cnn2c(C(F)(F)F)cc(-c3ccco3)nc12 (stereo not given),inactive,
CC(=O)Nc1ccc(N/C=C(\C=O)c2nc3ccccc3o2)cc1,"inconclusive [inhibitor, single point]",
Cc1ccc(S(=O)(=O)Nc2ncnc3ccccc23)cc1,"inconclusive [inhibitor, single point]",
CCc1ccc(CN(C)Cc2nc(-c3cccc(Cl)c3)no2)nc1,"inconclusive [inhibitor, partial curve]",
NC(=O)c1c(NC(=O)CSc2nnc(-c3ccco3)n2N)sc2c1CCCC2,"inconclusive [inhibitor, single point]",
CCc1cccc(CC)c1NC(=S)NCC(c1cccnc1)N1CCOCC1 (stereo not given),inactive,
C/C(=N/NC(=O)c1cnccn1)c1ccncc1,"inconclusive [inhibitor, full curve, poor fit]",
O=C(Nc1cccc(-c2cccc(F)c2)c1)C1CCN(Cc2ccc(CO)o2)CC1,inactive,
Cc1cccn2cc(-c3cccc(NC(=O)c4cccs4)c3)nc12,"inconclusive [inhibitor, partial curve]",
O=c1c2c3c(sc2nc(NCCO)n1Cc1ccco1)CCCCC3,,inconclusive: -17.6% [inhibitor]
